Among all 230,000 compounds or so, about 3,600 (1.6%) were called active. This list was built around the results that the source calls inconclusive (neither active nor inactive); the mix of calls is not that of the screen. Calls follow the shape of the dose curve; as a rule, active = well fitted inhibition curve with a large enough effect (not every such curve was filed as active); inconclusive = small, poorly fitted or top-dose-only effect, or another doubt; inactive = no such curve, though single readings can be large or run the other way. Potencies of inconclusive entries are doubtful fits and often do not repeat.
Molecular target: Lysine-specific demethylase 4E (Homo sapiens) (UniProt B2RXH2)
Test: qHTS Assay for Inhibitors of Human Jumonji Domain Containing 2E (JMJD2E)
Details: JMJD2E catalytic domain, FDH-coupled NADH fluorescence (FDH is formaldehyde dehydrogenase); series mostly up to 57.1 µM; activity change, negative = inhibition: at the top concentration
Excerpt: Assay Provider: Structural Genomics Consortium [SGC] Screening Center PI: Austin, C.P. Screening Center: NIH Chemical Genomics Center [NCGC] The fine interplay among methylation states of several lysine residues on the tails of histone proteins is a major determinant of the transcriptional state of the associated DNA coding regions and is commonly referred to as the histone code. Histone lysine demethylases catalyze the removal of methyl groups from methylated lysine sidechains on histones H3 and H4, thus antagonizing the reactions catalyzed by histone lysine methyltransferases. […] In search for novel inhibitors of JMJD2E demethylase, a member of the largest set of histone demethylases belonging to the Fe(II) and 2-oxoglutarate oxygenase (2OG) superfamily, we performed a quantitative high-throughput screen (Inglese 2006) by using an assay which utilizes a trimethylated peptide substrate corresponding to a fragment of histone H3 (sequence ARKme3STGGK) with detection of the formaldehyde co-product in real time by a formaldehyde dehydrogenase (FDH) coupled reaction. FDH catalyzes oxidation of formaldehyde to formic acid with the concomitant reduction of the non-fluorescent beta-nicotinamide adenine dinucleotide hydrate (NAD+) cofactor to the fluorescent NADH co-product. References: Inglese, J., Auld, D., Jadhav, A., Johnson, R., Simeonov, A., Yasgar, A., Zheng, W. and Austin, C. Proc Natl Acad Sci USA 2006, 103, 11473-11478. N. R. Rose, S. S. Ng, J. Mecinovic, B. M. Lienard, S. H. Bello, Z. Sun, M. A. McDonough, U. Oppermann and C. J. Schofield, J Med Chem, 2008, 51, 7053-7056. Sakurai, M., Rose, N., Schultz, L., Quinn, A., Jadhav, A., Ng, S., Oppermann, U., Schofield, C.J. and Simeonov, A. Mol BioSystems 2009, in press. S. Michael, D. Auld, C. Klumpp, A. Jadhav, W. Zheng, N. Thorne, C. Austin, J. Inglese and A. Simeonov, Assay Drug Dev Technol, 2008, 6, 637-657.
Reagents and Controls: Ferrous ammonium sulfate, (+)-sodium L-ascorbate, beta-nicotinamide adenine dinucleotide hydrate (NAD+), Tween-20, formaldehyde dehydrogenase from P. putida (FDH), and disodium 2-oxoglutarate were from Sigma (St. Louis, MO). Black solid-bottom 384-well or 1,536-well assay plates were from Greiner Bio-One (Monroe, NC). Enzyme was supplied by Prof. Udo Oppermann, SGC-Oxford. The catalytic domain of human JMJD2E (residues 1-337) was produced as an N-terminally His6-tagged protein in E. coli, and purified by Ni-affinity chromatography and size-exclusion chromatography, and stored in HEPES 50 mM/ NaCl 500 mM pH 7.5, as reported in Rose 2008. The trimethylated histone peptide substrate ARK(me3)STGGK was synthesized and HPLC-purified by the Tufts University Core Facility (Boston, MA). Substrate solution (Sakurai 2009) contained 50 uM ARK(me3)STGGK, 0.00025 U/uL FDH, 50 uM 2-oxoglutarate, 250 uM NAD+, 1 mM ascorbate, and 10 uM ferrous ammonium sulfate. Controls and plate map: Buffer (150 mM HEPES pH 7.5 containing 0.01% Tween-20) in columns 3 and 4 as negative control (no enzyme) and 100 nM JMJD2E final concentration in columns 1,2, and 5-48. Assay Steps: Enzyme and buffer solutions (3 uL) were dispensed into a 1,536-well Greiner black solid-bottom assay plate. The library compounds (23 nL) were transferred using a Kalypsys pintool equipped with 1,536-pin array. The plate was incubated at room temperature (15 min), and then a 1 uL aliquot of substrate solution was added to initiate the reaction. The plate was transferred to ViewLux imager where an initial reading using standard UV optics (Ex 340 nm, Em 450 nm) was obtained. The plate was then removed from the reader, incubated for 30 minutes at room temperature, and returned to the reader for a second fluorescence reading. A fully automated robotic screening system (Kalypsys Inc, San diego, CA) was used to perform the above steps as described previously (Michael 2008). […]
Also: nearly all actives have a fitted effect of over 50% in size.
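For activity change, negative = inhibition in this document: 0% = wells with enzyme and -100% = buffer wells without enzyme.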
Potency is read from the fitted curve at half-maximal effect; tags tell the direction and shape of the fitted curve.

Chain of UniProt B2RXH2 (B2RXH2 whole entry, looked up, the tested form may be a part): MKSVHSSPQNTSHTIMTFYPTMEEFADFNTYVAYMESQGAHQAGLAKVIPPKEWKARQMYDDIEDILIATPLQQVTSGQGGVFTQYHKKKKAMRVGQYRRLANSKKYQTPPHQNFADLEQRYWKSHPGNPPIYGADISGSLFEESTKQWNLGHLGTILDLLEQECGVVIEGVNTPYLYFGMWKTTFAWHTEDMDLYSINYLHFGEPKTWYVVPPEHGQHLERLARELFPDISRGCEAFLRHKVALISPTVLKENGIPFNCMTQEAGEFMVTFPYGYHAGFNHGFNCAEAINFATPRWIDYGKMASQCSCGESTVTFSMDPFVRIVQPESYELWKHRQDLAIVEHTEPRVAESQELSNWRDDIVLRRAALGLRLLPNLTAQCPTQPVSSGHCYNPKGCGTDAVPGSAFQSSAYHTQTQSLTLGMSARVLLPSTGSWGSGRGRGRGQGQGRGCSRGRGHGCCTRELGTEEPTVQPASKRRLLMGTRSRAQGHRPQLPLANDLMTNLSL

| SMILES | Potency | activity change, negative = inhibition |
| --- | --- | --- |
| CCCCc1c(O)cc(C)[nH]c1=O | inconclusive: 39.8 µM [inhibitor, single point] |  |
| COc1cc(NC(=O)c2cccs2)c(C(=O)OCC(=O)NC(=O)NCc2ccccc2)cc1OC | inconclusive: 28.2 µM [inhibitor, partial curve] |  |
| CCc1cc2c(=O)c(Oc3ccccc3)c(C)oc2cc1O | inconclusive: 10 µM [inhibitor, partial curve] |  |
| CC(=O)Nc1cccc(NC(=O)CSc2nnc(Cc3cccn3C)n2-c2ccc(C)cc2)c1 |  | inactive: 4.79% |
| CCOc1ccc(-c2ccc(SCC(=O)N3CCOCC3)nn2)cc1 | inconclusive: 28.2 µM [inhibitor, partial curve] |  |
| COc1ccc(-c2nc3c(c4c2C[C@H](c2ccccc2)OC4)CN(C(=O)Cc2cccs2)CC3)c(C)c1 |  | inactive: -16.6% [at 11.4 µM] |
| O=C(Nc1nnc(-c2ccco2)s1)C1CC1 | inconclusive: 39.8 µM [inhibitor, single point] |  |
| CC(C)C(=O)N1CCN(c2ccc(NC(=O)c3cccs3)cc2)CC1 |  | inactive: 2.23% |
| Cc1ccccc1N1CCN(C(=O)c2ccccc2NC(=O)/C=C\C(=O)O)CC1 | inconclusive: 39.8 µM [inhibitor, single point] |  |
| O=C(CN1CCC(c2nc3ccccc3s2)CC1)NCc1cccs1 |  | inactive: -5.86% |
| Cc1ccc2c(CC(=O)NCC3COc4ccccc4O3)coc2c1 (configuration not stated) | inconclusive: 39.8 µM [inhibitor, single point] |  |
| Cc1cc(C(=O)Cn2nc(C(=O)O)c3ccccc3c2=O)c(C)n1-c1ccc(F)cc1 | inconclusive: 39.8 µM [inhibitor, single point] |  |
| CC(C)c1nnc(NC(=O)C2CCN(c3cnccn3)CC2)s1 | inconclusive: 22.4 µM [inhibitor, single point] |  |
| Nc1nn(-c2ccccc2)c(N)c1N=Nc1ccccc1F |  | inactive: 10.8% |
| O=C(c1ccc(F)cc1)N1CCN(c2ccc(N3CCOCC3)nn2)CC1 | inconclusive: 28.2 µM [inhibitor, partial curve] |  |
| CC(=O)c1ccc(N2Cc3ccccc3/C2=N\C(=O)Nc2ccccc2)cc1 |  | inactive: 2.48% |
| O=C(O)c1cccnc1-c1ncccc1C(=O)O | inconclusive: 39.8 µM [inhibitor, single point] |  |
| CCC(=O)N(Cc1ccco1)c1nc(-c2cc(OC)ccc2OC)cs1 |  | inactive: -7.19% |
| Nc1c2c(nc3ccccc13)CCCC2 | inconclusive: 15.8 µM [inhibitor, full curve] |  |
| O=C(CCc1ccccc1)Nc1nnc(-c2cccs2)o1 | inconclusive: 28.2 µM [inhibitor, partial curve] |  |
| Cc1ccc(S(=O)(=O)N2CCC(C(=O)O)CC2)cc1C(=O)O | inconclusive: 39.8 µM [inhibitor, single point] |  |
| COc1ccc(-c2nc(NC(=O)c3ccc(OCC(=O)N4CCOCC4)c(OC)c3)sc2C)cc1 | inconclusive: 31.6 µM [inhibitor, single point] |  |
| Cc1cc2oc(C(=O)N(Cc3ccccc3)c3ccccn3)cc(=O)c2cc1Cl |  | inactive: -6.5% |
| Cc1ccccc1N(CC(=O)NCC1CCCO1)C(=O)C1(C)CC(=O)N=C2C=CC=CN21 (configuration not stated) | inconclusive: 31.6 µM [inhibitor, partial curve] |  |

| SMILES | Potency | activity change, negative = inhibition |
| --- | --- | --- |
| Cn1c(C(=O)O)cc2c(=O)n3ccccc3nc21 | inconclusive: 28.2 µM [inhibitor, partial curve] |  |
| C[C@@H](C(=O)NCCc1c[nH]c2ccccc12)[C@@H]1C[C@@]1(C)[C@@H](NC(=O)OCc1ccccc1)c1ccccc1 | inactive |  |
| Cc1ccc(Nc2c([N+](=O)[O-])c(=O)n(C)c3ccccc23)cc1 |  | inactive: -5.61% |
| CCOC(=O)c1sc2nc(NC(=O)C3CCCCC3)sc2c1C | inconclusive: 39.8 µM [inhibitor, single point] |  |
| Cc1ccc2cc(CN(CC3CCCO3)C(=S)NCc3ccco3)c(=O)[nH]c2c1C (configuration not stated) |  | inactive: -8.76% |
| Cc1ccccc1OCCNC(=O)CNC(=O)c1ccccc1O | inconclusive: 31.6 µM [inhibitor, partial curve] |  |
| C=CCn1c(-c2cc(OC)c(OC)c(OC)c2)n[nH]c1=S | inconclusive: 39.8 µM [inhibitor, single point] |  |
| Cc1ccc2c(c1)c1c3n2CC(=C2C(=O)OC(C)(C)OC2=O)NC3CCC1 (configuration not stated) | inconclusive: 25.1 µM [inhibitor, partial curve] |  |
| O=C(NC1CC1)C1=C[C@H](c2ccc(Br)cc2)C[C@H](OCc2ccc(CO)cc2)O1 |  | inactive: 0.238% |
| Cc1ccc2[nH]c3c(=O)n4c(nc3c2c1)SCC4 | inconclusive: 31.6 µM [inhibitor, partial curve] |  |
| CC(C)Oc1ccc(OCCn2c(=S)[nH]c3c(N)ncnc32)cc1 |  | inactive: -23.3% |
| CCNC(=O)c1c(N)sc2c1CCCCC2 | inconclusive: 35.5 µM [inhibitor, single point] |  |
| Clc1ccc(-c2csc(=Nc3cccnc3)n2CCCn2ccnc2)cc1Cl |  | inactive: 4.35% |
| COc1ccc2c(c1)cc1n2CCN2CCCN=C12 | inconclusive: 39.8 µM [inhibitor, single point] |  |
| COC(=O)c1c(NC(=O)Cc2cccs2)sc(C)c1C | inconclusive: 28.2 µM [inhibitor, single point] |  |
| CC(=O)c1sc(N/N=C\c2cccc(Br)c2)nc1C |  | inactive: -7.74% |
| c1coc(CNc2nc(N3CCCCC3)nc3ccccc23)c1 | inconclusive: 28.2 µM [inhibitor, partial curve] |  |
| COc1ccc(Oc2nc3c(c(=O)n(C)c(=O)n3C)n2Cc2cccc(OC)c2)cc1 |  | inactive: -1.93% |
| CN(C)c1ccc(/C=C/c2ccc3c4ccccc4ccc3[n+]2-c2ccccc2)cc1 | inconclusive: 35.5 µM [inhibitor, single point] |  |
| Cc1nc2c(S(=O)(=O)c3ccccc3)cnn2c(C)c1C | inconclusive: 25.1 µM [inhibitor, partial curve] |  |
| COc1cc(SC)ccc1C(=O)N1CCN(Cc2ccccc2)CC1 |  | inactive: 11.5% |
| COCCN(C(=O)Cc1cccs1)C(C(=O)NCc1ccc(OC)cc1)c1ccccc1 (configuration not stated) |  | inactive: -0.824% |
| Cc1ccc2c(c1)[nH]c1c(N3CCN(Cc4ccccc4)CC3)ncnc12 | inconclusive: 35.5 µM [inhibitor, single point] |  |
